Consider three molecules from article PMC8096781.

Amino acid sequences for entries named in this document (tags omitted). Residues count along the entry.
UniProt Q04206: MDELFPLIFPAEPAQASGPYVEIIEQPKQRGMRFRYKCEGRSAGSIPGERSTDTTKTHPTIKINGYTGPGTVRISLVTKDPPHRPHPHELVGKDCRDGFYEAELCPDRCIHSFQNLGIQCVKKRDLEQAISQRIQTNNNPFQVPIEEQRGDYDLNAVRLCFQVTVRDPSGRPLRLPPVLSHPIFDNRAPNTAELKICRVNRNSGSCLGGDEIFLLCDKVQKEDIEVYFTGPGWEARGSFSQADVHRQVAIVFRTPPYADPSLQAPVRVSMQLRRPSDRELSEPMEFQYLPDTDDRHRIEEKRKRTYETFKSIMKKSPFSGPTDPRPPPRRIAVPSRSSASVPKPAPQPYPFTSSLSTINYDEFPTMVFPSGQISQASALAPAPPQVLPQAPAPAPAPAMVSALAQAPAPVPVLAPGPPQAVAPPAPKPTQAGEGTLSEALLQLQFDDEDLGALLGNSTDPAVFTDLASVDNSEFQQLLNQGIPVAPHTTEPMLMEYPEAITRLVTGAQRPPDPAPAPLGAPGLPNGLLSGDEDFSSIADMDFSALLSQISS
UniProt P19838, residues 1-433: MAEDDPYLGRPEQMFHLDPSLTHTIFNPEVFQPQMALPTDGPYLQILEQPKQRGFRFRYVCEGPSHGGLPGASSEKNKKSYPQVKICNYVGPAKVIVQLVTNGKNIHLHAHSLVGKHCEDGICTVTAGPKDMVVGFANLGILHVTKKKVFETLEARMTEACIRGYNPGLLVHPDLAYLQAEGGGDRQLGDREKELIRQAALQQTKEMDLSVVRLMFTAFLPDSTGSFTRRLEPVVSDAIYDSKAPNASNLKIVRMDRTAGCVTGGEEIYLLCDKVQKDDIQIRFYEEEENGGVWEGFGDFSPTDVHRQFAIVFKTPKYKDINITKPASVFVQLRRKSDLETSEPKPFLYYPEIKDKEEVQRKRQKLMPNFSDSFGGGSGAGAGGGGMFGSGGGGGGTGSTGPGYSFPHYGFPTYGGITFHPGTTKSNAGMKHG

Common to all, as to experiment: co-IP; vector control and Flag-FOXM1A/B/C/D-overexpressing HeLa cells further transfected with HA-p65 or HA-p50 plasmid; anti-Flag or anti-HA antibody; western blot
The target of one experiment is HA-p65 (UniProt Q04206).
In another experiment the target is HA-p50 (UniProt P19838).
The target in another experiment is HA-p65, Q04206. The conditions noted are these: remark: other sources report otherwise.

No constants are given. Whether binding was seen depends on the method and setting. Binding seen in cells or lysates may run through a third protein. Some entries that bind do so weakly or less than the wild type. Sequences can lack the tags named with a protein.

B1: Flag-FOXM1B (overexpressed in HeLa cells) (protein, UniProt Q08050-2 1-748)
chain: MKTSPRRPLILKRRRLPLPVQNAPSETSEEEPKRSPAQQESNQAEASKEVAESNSCKFPAGIKIINHPTMPNTQVVAIPNNANIHSIITALTAKGKESGSSGPNKFILISCGGAPTQPPGLRPQTQTSYDAKRTEVTLETLGPKPAARDVNLPRPPGALCEQKRETCADGEAAGCTINNSLSNIQWLRKMSSDGLGSRSIKQEMEEKENCHLEQRQVKVEEPSRPSASWQNSVSERPPYSYMAMIQFAINSTERKRMTLKDIYTWIEDHFPYFKHIAKPGWKNSIRHNLSLHDMFVRETSANGKVSFWTIHPSANRYLTLDQVFKQQKRPNPELRRNMTIKTELPLGARRKMKPLLPRVSSYLVPIQFPVNQSLVLQPSVKVPLPLAASLMSSELARHSKRVRIAPKVLLAEEGIAPLSSAGPGKEEKLLFGEGFSPLLPVQTIKEEEIQPGEEMPHLARPIKVESPPLEEWPSPAPSFKEESSHSWEDSSQSPTPRPKKSYSGLRSPTRCVSEMLVIQHRERRERSRSRRKQHLLPPCVDEPELLFSEGPSTSRWAAELPFPADSSDPASQLSYSQEVGGPFKTPIKETLPISSTPSKSVLPRTPESWRLTPPAKVGGLDFSPVQTSQGASDPLPDPLGLMDLSTTPLQSAPPLESPQRLLSSEPLDLISVPFGNSSPSDIDVPKPGSPEPQVSGLAANRSLTEGLVLDTMNDSLSKILLDISFPGLDEDPLGPDNINWSQFIPELQ
Regarding B1, in the experiment with HA-p65, the binding entry is “binds”.

B2: Flag-FOXM1A (overexpressed in HeLa cells) (protein, UniProt Q08050-3 1-801)
chain: MKTSPRRPLILKRRRLPLPVQNAPSETSEEEPKRSPAQQESNQAEASKEVAESNSCKFPAGIKIINHPTMPNTQVVAIPNNANIHSIITALTAKGKESGSSGPNKFILISCGGAPTQPPGLRPQTQTSYDAKRTEVTLETLGPKPAARDVNLPRPPGALCEQKRETCADGEAAGCTINNSLSNIQWLRKMSSDGLGSRSIKQEMEEKENCHLEQRQVKVEEPSRPSASWQNSVSERPPYSYMAMIQFAINSTERKRMTLKDIYTWIEDHFPYFKHIAKPGWKNSIRHNLSLHDMFVRETSANGKVSFWTIHPSANRYLTLDQVFKPLDPGSPQLPEHLESQQKRPNPELRRNMTIKTELPLGARRKMKPLLPRVSSYLVPIQFPVNQSLVLQPSVKVPLPLAASLMSSELARHSKRVRIAPKVFGEQVVFGYMSKFFSGDLRDFGTPITSLFNFIFLCLSVLLAEEGIAPLSSAGPGKEEKLLFGEGFSPLLPVQTIKEEEIQPGEEMPHLARPIKVESPPLEEWPSPAPSFKEESSHSWEDSSQSPTPRPKKSYSGLRSPTRCVSEMLVIQHRERRERSRSRRKQHLLPPCVDEPELLFSEGPSTSRWAAELPFPADSSDPASQLSYSQEVGGPFKTPIKETLPISSTPSKSVLPRTPESWRLTPPAKVGGLDFSPVQTSQGASDPLPDPLGLMDLSTTPLQSAPPLESPQRLLSSEPLDLISVPFGNSSPSDIDVPKPGSPEPQVSGLAANRSLTEGLVLDTMNDSLSKILLDISFPGLDEDPLGPDNINWSQFIPELQ
Turning to B2, the binding result in the experiment with HA-p65 is on record as “binds”; in the experiment with HA-p50, “binds weakly”.

B3: Flag-FOXM1C (overexpressed in HeLa cells), Q08050-1 1-763 (protein)
chain: MKTSPRRPLILKRRRLPLPVQNAPSETSEEEPKRSPAQQESNQAEASKEVAESNSCKFPAGIKIINHPTMPNTQVVAIPNNANIHSIITALTAKGKESGSSGPNKFILISCGGAPTQPPGLRPQTQTSYDAKRTEVTLETLGPKPAARDVNLPRPPGALCEQKRETCADGEAAGCTINNSLSNIQWLRKMSSDGLGSRSIKQEMEEKENCHLEQRQVKVEEPSRPSASWQNSVSERPPYSYMAMIQFAINSTERKRMTLKDIYTWIEDHFPYFKHIAKPGWKNSIRHNLSLHDMFVRETSANGKVSFWTIHPSANRYLTLDQVFKPLDPGSPQLPEHLESQQKRPNPELRRNMTIKTELPLGARRKMKPLLPRVSSYLVPIQFPVNQSLVLQPSVKVPLPLAASLMSSELARHSKRVRIAPKVLLAEEGIAPLSSAGPGKEEKLLFGEGFSPLLPVQTIKEEEIQPGEEMPHLARPIKVESPPLEEWPSPAPSFKEESSHSWEDSSQSPTPRPKKSYSGLRSPTRCVSEMLVIQHRERRERSRSRRKQHLLPPCVDEPELLFSEGPSTSRWAAELPFPADSSDPASQLSYSQEVGGPFKTPIKETLPISSTPSKSVLPRTPESWRLTPPAKVGGLDFSPVQTSQGASDPLPDPLGLMDLSTTPLQSAPPLESPQRLLSSEPLDLISVPFGNSSPSDIDVPKPGSPEPQVSGLAANRSLTEGLVLDTMNDSLSKILLDISFPGLDEDPLGPDNINWSQFIPELQ
In the case of B3, the binding result with HA-p65, Q04206 is listed as “binds”.
